Assay results: US8592455B2 (priority 2008, dated 2013)
pEC50: −log10 of the molar value. Several values for one entry are separate records, joined by “and”; a condition that tells them apart may be missing. Equal values may be shown once. Read-outs that look alike come from different tables or passages of the source.

Tests used:
KMS11 cells [1] = conditions: read-out: KMS11-lluc EC50
KMS11-luc xenograft = conditions: mouse, in vivo
KMS11 cells [2] = test: cells; conditions: Homo sapiens, KMS-11, 72 h, read-out: KMS11-lluc EC50
[3] = system: pBad Ser112 phosphorylation; test: animal or person; conditions: Mus musculus, po, read-out: percent inhibition of pBad Ser112 phosphorylation relative to total Bad

Row | SMILES | pEC50 (KMS11 cells [2]) | also measured
1 | Nc1cc(F)c(-c2c(F)cccc2F)nc1C(=O)Nc1cnccc1[C@@H]1CC[C@H](O)[C@H](N)C1 (stereo in doubt) [Example 131, 3-amino-N-(4-(3-amino-4-hydroxycyclohexyl)pyridin-3-yl)-6-(2,6-difluorophenyl)-5-fluoropicolinamide] | – | pEC50 (KMS11 cells [1]): 6.37
2 | C[C@H]1CN(c2ccncc2NC(=O)c2ccc(F)c(-c3c(F)cccc3F)n2)C[C@@H](N)[C@@H]1O [Example 96, N-(4-((3R,4R,5S)-3-amino-4-hydroxy-5-methylpiperidin-1-yl)pyridin-3-yl)-6-(2,6-difluorophenyl)-5-fluoropicolinamide] | 7.52 | tumor growth inhibition (KMS11-luc xenograft): 67% and 96% and 88%; inhibition at 25 mg/kg ([3]; 1 h): 0%; inhibition at 50 mg/kg ([3]; 1 h): 44%; inhibition at 100 mg/kg ([3]; 1 h): 58%; inhibition at 25 mg/kg ([3]; 8 h): 24%; inhibition at 50 mg/kg ([3]; 8 h): 69%; inhibition at 100 mg/kg ([3]; 8 h): 71%; inhibition at 50 mg/kg ([3]; 24 h): 16%; inhibition at 100 mg/kg ([3]; 24 h): 53%
3 | Nc1cc(F)c(-c2c(F)cccc2F)nc1C(=O)Nc1cnccc1[C@@H]1CC[C@H](O)[C@H](N)C1 [Example 65, 3-amino-N-(4-((1R,3R,4S)-3-amino-4-hydroxycyclohexyl)pyridin-3-yl)-6-(2,6-difluorophenyl)-5-fluoropicolinamide] | – | pEC50 (KMS11 cells [1]): 6.80
4 | C[C@H]1CN(c2ccncc2NC(=O)c2ccc(F)c(-c3ccncc3F)n2)C[C@@H](N)[C@@H]1O [Example 119, N-(4-((3R,4R,5S)-3-amino-4-hydroxy-5-methylpiperidin-1-yl)pyridin-3-yl)-3,3′-difluoro-2,4′-bipyridine-6-carboxamide] | 5.92 | –
5 | C[C@@H]1C[C@H](N)C[C@H](c2ccncc2NC(=O)c2nc(-c3c(F)cccc3F)c(F)cc2N)C1 [Example 51, 3-amino-N-(4-((1R,3S,5S)-3-amino-5-methylcyclohexyl)pyridin-3-yl)-6-(2,6-difluorophenyl)-5-fluoropicolinamide] | 6.51 | –
6 | C[C@@H]1C[C@H](N)C[C@H](c2ccncc2NC(=O)c2ccc(F)c(-c3c(F)cc(O)cc3F)n2)C1 [Example 128, N-(4-((1R,3S,5S)-3-amino-5-methylcyclohexyl)pyridin-3-yl)-6-(2,6-difluoro-4-hydroxyphenyl)-5-fluoropicolinamide] | 6.59 | –
7 | C[C@H]1CN(c2ccncc2NC(=O)c2ccc(F)c(C3CCCCC3)n2)C[C@@H](N)[C@@H]1O [Example 16, N-(4-((3R,4R,5S)-3-amino-4-hydroxy-5-methylpiperidin-1-yl)pyridin-3-yl)-6-cyclohexyl-5-fluoropicolinamide] | 5.77 | –
8 | C[C@@H]1C[C@H](N)C[C@H](c2ccncc2NC(=O)c2ccc(F)c(-c3cc(F)ccc3F)n2)C1 [Example 61, N-(4-((1R,3S,5S)-3-amino-5-methylcyclohexyl)pyridin-3-yl)-6-(2,5-difluorophenyl)-5-fluoropicolinamide] | 5.92 | –
9 | C[C@H]1CN(c2ccncc2NC(=O)c2nc(-c3c(F)cccc3F)c(F)cc2N)C[C@@H](N)[C@@H]1O [Example 3, 3-amino-N-(4-((3R,4R,5S)-3-amino-4-hydroxy-5-methylpiperidin-1-yl)pyridin-3-yl)-6-(2,6-difluorophenyl)-5-fluoropicolinamide] | 8.00 | –
10 | N[C@H]1CCC[C@@H](c2ccncc2NC(=O)c2cccc(-c3cc(O)ccc3F)n2)C1 [Example 7, N-(4-((1R,3S)-3-aminocyclohexyl)pyridin-3-yl)-6-(2-fluoro-5-hydroxyphenyl)picolinamide] | 6.48 | –
11 | N[C@@H]1C[C@H](c2ccncc2NC(=O)c2cccc(-c3ccccc3F)n2)CC[C@@H]1O [Example 83, N-(4-((1R,3R,4S)-3-amino-4-hydroxycyclohexyl)pyridin-3-yl)-6-(2-fluorophenyl)picolinamide] | < 5.00 | –
12 | N[C@H]1CCC[C@@H](c2ccncc2NC(=O)c2ccc(F)c(-c3cccc(F)c3F)n2)C1 [Example 79, N-(4-((1R,3S)-3-aminocyclohexyl)pyridin-3-yl)-6-(2,3-difluorophenyl)-5-fluoropicolinamide] | 5.34 | –
13 | CCc1ccc(F)c(-c2cccc(C(=O)Nc3cnccc3[C@@H]3CCC[C@H](N)C3)n2)c1F [Example 19, N-(4-((1R,3S)-3-aminocyclohexyl)pyridin-3-yl)-6-(3-ethyl-2,6-difluorophenyl)picolinamide] | 5.35 | –
14 | C[C@H]1CN(c2ccncc2NC(=O)c2cccc(-c3ccccc3F)n2)C[C@@H](N)[C@@H]1O [Example 23, N-(4-((3R,4R,5S)-3-amino-4-hydroxy-5-methylpiperidin-1-yl)pyridin-3-yl)-6-(2-fluorophenyl)picolinamide] | 5.72 | –
15 | C[C@H]1C[C@@H](c2ccncc2NC(=O)c2cccc(-c3c(F)cccc3F)n2)C[C@@H](N)[C@H]1O [Example 76, N-(4-((1R,3R,4S,5S)-3-amino-4-hydroxy-5-methylcyclohexyl)pyridin-3-yl)-6-(2,6-difluorophenyl)picolinamide] | 6.08 | –
16 | C[C@H]1CN(c2ccncc2NC(=O)c2ccc(F)c(-c3ccccc3F)n2)C[C@@H](O)[C@@H]1O [Example 114, N-(4-((3R,4R,5S)-3,4-dihydroxy-5-methylpiperidin-1-yl)pyridin-3-yl)-5-fluoro-6-(2-fluorophenyl)picolinamide] | 6.19 | –
17 | Cc1ccc(F)c(-c2cccc(C(=O)Nc3cnccc3[C@H]3C[C@@H](N)[C@H](O)[C@@H](C)C3)n2)c1F [Example 30, N-(4-((1R,3R,4R,5S)-3-amino-4-hydroxy-5-methylcyclohexyl)pyridin-3-yl)-6-(2,6-difluoro-3-methylphenyl)picolinamide] | 5.68 | –
18 | COc1ccc(F)c(-c2nc(C(=O)Nc3cnccc3[C@@H]3C[C@H](C)C[C@H](N)C3)ccc2F)c1 [Example 45, N-(4-((1R,3S,5S)-3-amino-5-methylcyclohexyl)pyridin-3-yl)-5-fluoro-6-(2-fluoro-5-methoxyphenyl)picolinamide] | 5.89 | –
19 | C[C@@H]1C[C@H](N)C[C@H](c2ccncc2NC(=O)c2nc(-c3c(F)cc(O)cc3F)ccc2F)C1 [Example 42, N-(4-((1R,3S,5S)-3-amino-5-methylcyclohexyl)pyridin-3-yl)-6-(2,6-difluoro-4-hydroxyphenyl)-3-fluoropicolinamide] | 5.52 | –
20 | C[C@H]1CN(c2ccncc2NC(=O)c2ccc(F)c(-c3c(F)cc(O)cc3F)n2)C[C@@H](N)[C@@H]1O [Example 2, N-(4-((3R,4R,5S)-3-amino-4-hydroxy-5-methylpiperidin-1-yl)pyridin-3-yl)-6-(2,6-difluoro-4-hydroxyphenyl)-5-fluoropicolinamide] | 7.15 | –
21 | C[C@@H]1C[C@H](N)C[C@H](c2ccncc2NC(=O)c2ccc(F)c([C@H]3CC[C@@H](O)CC3)n2)C1 [Example 54, N-(4-((1R,3S,5S)-3-amino-5-methylcyclohexyl)pyridin-3-yl)-5-fluoro-6-((1s,4s)-4-hydroxycyclohexyl)picolinamide] | 5.42 | –
22 | C[C@H]1CN(c2ccncc2NC(=O)c2cccc(-c3c(F)cccc3F)n2)C[C@@H](O)[C@@H]1O [Example 115, 6-(2,6-difluorophenyl)-N-(4-((3R,4R,5S)-3,4-dihydroxy-5-methylpiperidin-1-yl)pyridin-3-yl)picolinamide] | 6.23 | –
23 | C[C@@H]1C[C@H](N)C[C@H](c2ccncc2NC(=O)c2nc(-c3c(F)cccc3F)c(F)cc2N)C1 (stereo in doubt) [Example 133, 3-amino-N-(4-(3-amino-5-methylcyclohexyl)pyridin-3-yl)-6-(2,6-difluorophenyl)-5-fluoropicolinamide] | – | pEC50 (KMS11 cells [1]): 6.62
24 | C[C@@H]1C[C@H](N)C[C@H](c2ccncc2NC(=O)c2ccc(F)c(-c3ccc(O)cc3F)n2)C1 [Example 38, N-(4-((1R,3S,5S)-3-amino-5-methylcyclohexyl)pyridin-3-yl)-5-fluoro-6-(2-fluoro-4-hydroxyphenyl)picolinamide] | 6.14 | –
25 | CC1(C)C[C@H](N)C[C@H](c2ccncc2NC(=O)c2ccc(F)c(-c3c(F)cccc3F)n2)C1 [Example 49, N-(4-((1R,5R)-5-amino-3,3-dimethylcyclohexyl)pyridin-3-yl)-6-(2,6-difluorophenyl)-5-fluoropicolinamide] | 5.74 | –
26 | N[C@H]1CCC[C@@H](c2ccncc2NC(=O)c2ccc(F)c([C@H]3CC[C@@H](O)CC3)n2)C1 [Example 53, N-(4-((1R,3S)-3-aminocyclohexyl)pyridin-3-yl)-5-fluoro-6-((1s,4s)-4-hydroxycyclohexyl)picolinamide] | < 5.00 | –
